In PubChem BioAssay AID588342 (National Center for Advancing Translational Sciences (NCATS), 2011):
The campaign covered roughly 360,000 compounds. About 25,000 (6.9%) were called active. The inconclusive results got no clear call from the source; some entries with a clear call stand among them for comparison. Calls follow the shape of the dose curve; as a rule, active = well fitted inhibition curve with a large enough effect; inconclusive = small, poorly fitted or top-dose-only effect; inactive = flat fitted curve, though single readings scatter. A potency beside an inconclusive call is a rough fit, not a confirmed value.

Each compound was assayed against Luciferin 4-monooxygenase (Photinus pyralis) (UniProt P08659) (assay: qHTS profiling assay for firefly luciferase inhibitor/activator using purifed enzyme and Km concentrations of substrates (counterscreen for miR-21 project)). Conditions: purified FLuc, luminescence inhibition; series mostly up to 57.5 µM.
UniProt P08659, sequence (P08659 whole entry, looked up): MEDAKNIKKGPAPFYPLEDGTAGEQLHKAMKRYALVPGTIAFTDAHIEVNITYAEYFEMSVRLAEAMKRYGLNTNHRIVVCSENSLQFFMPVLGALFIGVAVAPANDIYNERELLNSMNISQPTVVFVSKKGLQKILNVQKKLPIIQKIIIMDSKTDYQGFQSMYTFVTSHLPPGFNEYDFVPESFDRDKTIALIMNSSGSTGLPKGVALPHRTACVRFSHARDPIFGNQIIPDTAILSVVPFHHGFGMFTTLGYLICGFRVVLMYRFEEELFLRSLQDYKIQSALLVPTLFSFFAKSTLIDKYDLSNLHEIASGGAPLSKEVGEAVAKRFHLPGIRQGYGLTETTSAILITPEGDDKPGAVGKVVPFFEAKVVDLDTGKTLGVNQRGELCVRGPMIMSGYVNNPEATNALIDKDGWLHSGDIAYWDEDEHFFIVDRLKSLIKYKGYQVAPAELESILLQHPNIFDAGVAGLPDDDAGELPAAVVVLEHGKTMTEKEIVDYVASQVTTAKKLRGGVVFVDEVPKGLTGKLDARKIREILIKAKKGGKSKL
Summary of the method: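 Purified P. pyralis luciferase (10nM final) with 10uM D-luciferin and 10uM ATP (Km levels) in 50mM Tris acetate pH 7.5, 10mM Mg acetate, 0.01% Tween-20, 0.05% BSA; qHTS 6-point titration, ~60 µM downward; luminescence read.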
Also: nearly all actives have a fitted effect of over 55% in size.
Potency is read from the fitted curve at half-maximal effect; tags tell the direction and shape of the fitted curve.

Q: With `Cc1ccc(NCc2nnc(SCC(=O)NNC(=O)Cc3ccccc3)n2C)cc1` as the compound, how does the Potency read?
A: inactive

Q: Which Potency does the source give for `CCOc1ccc(NC(=O)NC23CC4CC(CC(C4)C2)C3)cc1` here?
A: inconclusive: 21.3 µM [inhibitor, partial curve, poor fit]

Q: Which Potency does the source give for `O=c1c2c(nc3cc(-c4cccc(Cl)c4)[nH]n13)CCC2` here?
A: active: 4.78 µM

Q: For `O=C(Nc1cccc(-c2cn3cccnc3n2)c1)c1cccs1`, which Potency is on record?
A: inconclusive: 21.3 µM [inhibitor, partial curve]

Q: With `CCOc1ccc(NC(=O)CN2C(=O)COc3ccc(S(=O)(=O)N4CCCCC4)cc32)cc1` as the compound, how does the Potency read?
A: inconclusive: 26.9 µM [inhibitor, partial curve, poor fit]

Q: Which Potency does the source give for `O=C(COC(=O)CCC(=O)c1cccs1)NCc1ccco1` here?
A: inactive

Q: `CC1CCCCN1C(=O)CSc1nnc(-c2c[nH]c3ccccc23)o1` (stereo not given) was tested. Which Potency did it give?
A: inconclusive: 23.9 µM [inhibitor, single point]

Q: For `O=S(=O)(Oc1ccc(Cl)cc1)c1cccc2cccnc12`, which Potency is on record?
A: inconclusive: 37.9 µM [inhibitor, partial curve, poor fit]

Q: With `O=C(OCC(=O)N1CCc2ccccc21)c1cccnc1` as the compound, how does the Potency read?
A: inconclusive: 37.9 µM [inhibitor, single point]

Q: How did the Potency turn out when `COc1ccc(Nc2nc3ccccc3n3cnnc23)cc1Cl` was run?
A: inconclusive: 8.49 µM [inhibitor, partial curve, poor fit]

Q: With `COc1cc(OC)cc(C(=O)NCCOc2ccccc2)c1` as the compound, how does the Potency read?
A: inconclusive: 19 µM [inhibitor, partial curve]

Q: How did the Potency turn out when `S=C(c1ccc(-c2ccc(Br)cc2)o1)N1CCOCC1` was run?
A: active: 3.01 µM

Q: How did the Potency turn out when `CC(=O)C1=C(C)NC(SCC(=O)c2ccc(F)cc2)=C(C#N)C1CC(C)C` (stereo not given) was run?
A: inconclusive: 23.9 µM [inhibitor, single point]

Q: `Cc1cc2c(cc3c(SCc4ccccc4Cl)nnc(C)n32)o1` was tested. Which Potency did it give?
A: active: 13.5 µM

Q: Which Potency does the source give for `Cc1nn(-c2ccccc2)c(C)c1/C=N/NC(=O)c1cccs1` here?
A: active: 8.49 µM

Q: With `Cc1c(CCNC(=O)C(C)(C)C)sc2nc(-c3ccc(F)cc3)nn12` as the compound, how does the Potency read?
A: inconclusive: 21.3 µM [inhibitor, single point]

Q: For `CCCCNC(=O)c1ccc2c(c1)S(=O)(=O)c1ccccc1C2=O`, which Potency is on record?
A: active: 15.1 µM

Q: How did the Potency turn out when `CC(=O)Nc1cccc(OCC(=O)Nc2ccccc2)c1` was run?
A: inconclusive: 26.9 µM [inhibitor, partial curve]

Q: Which Potency does the source give for `CC(=O)c1ccc(NC(=O)COCc2cc(-c3ccc(F)cc3)on2)cc1` here?
A: inactive

Q: How did the Potency turn out when `N#C/C(=C(/O)c1cccs1)c1nc2ccccc2[nH]1` was run?
A: inconclusive: 9.53 µM [inhibitor, partial curve]

Q: How did the Potency turn out when `COCCN(C(=O)C1CC1)c1nnc(-c2ccc(C)cc2)s1` was run?
A: inconclusive: 23.9 µM [inhibitor, partial curve]

Q: With `CC(C)CNC(=S)NC(=O)c1ccc(F)cc1` as the compound, how does the Potency read?
A: active: 30.1 µM

Q: How did the Potency turn out when `O=C(O)c1cc(-c2ccc(Cl)s2)nc2ccccc12` was run?
A: active: 15.1 µM

Q: How did the Potency turn out when `Cc1ccc(-c2csc(NC(=O)Cn3[nH]c(=O)c4ccccc4c3=O)n2)cc1` was run?
A: inconclusive: 30.1 µM [inhibitor, single point]

Q: How did the Potency turn out when `COc1ccc(C2=NS(=O)(=O)N(C)C(C(=O)Nc3ccc4c(c3)OCO4)=C2)cc1` was run?
A: inconclusive: 42.6 µM [inhibitor, partial curve, poor fit]

Q: Which Potency does the source give for `CN(CC(=O)Nc1cccc(F)c1)C(=O)c1ccc2c(c1)CC(c1ccccc1)OC2=O` (stereo not given) here?
A: inactive

Q: `O=C(NCCCN1CCN(c2ccccc2F)CC1)c1ccc2nc(N3CCCCC3)sc2c1` was tested. Which Potency did it give?
A: inconclusive: 19 µM [inhibitor, partial curve]

Q: For `OCCNc1c2ccccc2nc2c(F)c(F)c(F)c(F)c12`, which Potency is on record?
A: inactive

Q: With `CCN(CC)C(=O)c1cc2c(=O)c3cc(F)ccc3oc2nc1C` as the compound, how does the Potency read?
A: inconclusive: 21.3 µM [inhibitor, partial curve, poor fit]

Q: `CC(=O)Nc1cccc(C(=O)NCc2ccc3c(c2)CCN3C(=O)c2ccc(F)cc2)c1` was tested. Which Potency did it give?
A: inconclusive: 37.9 µM [inhibitor, partial curve, poor fit]

Q: `Cc1c(C(=O)NCc2ccc3c(c2)OCO3)sc2nc(-c3ccccc3)cn12` was tested. Which Potency did it give?
A: inconclusive: 23.9 µM [inhibitor, single point]

Q: How did the Potency turn out when `COC(=O)c1c(NC(=O)COC(=O)c2ccc(O)cc2)sc2c1CCCCC2` was run?
A: inactive

Q: How did the Potency turn out when `CC1CCN(C(=O)Cn2cc(SCc3cccc(F)c3)c3ccccc32)CC1` was run?
A: inactive

Q: How did the Potency turn out when `COCC(C)n1c(SCc2nc3ccccc3c(=O)[nH]2)nc2ccccc2c1=O` (stereo not given) was run?
A: inconclusive: 19 µM [inhibitor, partial curve, poor fit]

Q: How did the Potency turn out when `CCCOc1cccc(C(=O)Nc2cccnc2)c1` was run?
A: inconclusive: 23.9 µM [inhibitor, partial curve, poor fit]

Q: How did the Potency turn out when `CCN(CC)S(=O)(=O)c1cccc(C(=O)N/N=C(\C)c2ccc(O)cc2O)c1` was run?
A: inconclusive: 23.9 µM [inhibitor, partial curve, poor fit]

Q: `O=C(Nc1ccccc1N1CCCC1)c1ccc([N+](=O)[O-])o1` was tested. Which Potency did it give?
A: inactive

Q: How did the Potency turn out when `O=C(/C=C/c1cccs1)c1cc(Cl)ccc1OC(=O)N1CCOCC1` was run?
A: inactive

Q: How did the Potency turn out when `O=C(N/N=C/c1ccc2c(c1)OCO2)c1ccc2c(c1)OCCO2` was run?
A: active: 1.9 µM

Q: For `CC(=O)C(=Nc1ccc(Cl)cc1Cl)NNc1cccc(Cl)c1`, which Potency is on record?
A: inactive

Q: Which Potency does the source give for `Cc1cc(N2CC(C(=O)NCc3cccnc3)CC2=O)ccc1C(C)C` (stereo not given) here?
A: inconclusive: 26.9 µM [inhibitor, partial curve]

Q: `Nc1cc(S(=O)(=O)Nc2ccc(Cl)cc2)ccc1N1CCOCC1` was tested. Which Potency did it give?
A: inconclusive: 37.9 µM [inhibitor, partial curve, poor fit]

Q: With `O=C1CCC(C(=O)OCc2cc(=O)oc3ccc4ccccc4c23)=NN1` as the compound, how does the Potency read?
A: inactive

Q: `CC1CCN(c2nc3ccc(C(=O)NCCCN4CCCCC4C)cc3s2)CC1` (stereo not given) was tested. Which Potency did it give?
A: inconclusive: 37.9 µM [inhibitor, partial curve, poor fit]

Q: Which Potency does the source give for `O=C(COc1ccccc1F)Nc1ccccc1OCc1cc(=O)n2ccccc2n1` here?
A: inconclusive: 3.01 µM [inhibitor, partial curve, poor fit]
